Experimental data published in a collection of fitness landscapes (doi:10.1016/j.celrep.2020.107928).
In all, about 81,000 sequences were measured (“one-hybrid fitness for binding parS DNA”: median about -0.17, highest 2% from about 0.51 on). Some of the results follow.

B1: Caulobacter ParB omega fusion; a variant is named by its letters at X, in order, B8GW30 (parent)
chain: MESVVVGEPGMSEGRRGLGRGLSALLGEVDAAPAQAPGEQLGGSREAPIEILQRNPDQPRRTFREEDLEDLSNSIREKGVLQPILVRPSPDTAGEYQIVAGERAWRAAQRAGLKTVPIMVRELDDLAVLEIGIIENVQRADLNVLEEALSYKVLMEKFERTQENIAQTIGKSXSHVANXMRLLXLPDEVQSYLVSGELTAXHARAIAAAADPVALAKQIIEGGLSVRETEALARKAPNLSAGKSKGGRPPRVKDTDTQALESDLSSVLGLDVSIDHRGSTGTLTITYATLEQLDDLCNRLTRGI

Variants of: B1
Assay: one-hybrid fitness for binding parS DNA (scaled: cognate 1, non-cognate 0); higher = stronger binding
Conditions: with parS DNA site
Method in brief: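 Pre- and post-selection plasmids were Illumina-sequenced, three replicate libraries were pooled, and any variant with under 10 reads was removed. The libraries were Caulobacter ParB with four specificity codons randomised, selected in E. coli USO through a HIS3 reporter whose site is 19 bp from the promoter. Cells grew 48 hours at 37°C on M9 without histidine, with 0.1 mM IPTG and 5 mM 3-AT. Fitness is the log change in variant-to-wild-type read ratio, rescaled against cognate and non-cognate.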

| Variant | one-hybrid fitness for binding parS DNA |
| --- | --- |
| PYNR | ≤ 0.2 |
| EITS | ≤ 0.2 |
| DMST | ≤ 0.2 |
| QYCG | ≤ 0.2 |
| GWWR | ≤ 0.2 |
| QLHK | ≤ 0.2 |
| QKWM | ≤ 0.2 |
| QQMD | ≤ 0.2 |
| MKRS | ≤ 0.2 |
| AEWC | ≤ 0.2 |
| KVTS | ≤ 0.2 |
| MTNG | ≤ 0.2 |
| AMEG | ≤ 0.2 |
| KLCI | ≤ 0.2 |
| QYPL | ≤ 0.2 |
| WGPQ | ≤ 0.2 |
| SKAF | ≤ 0.2 |
| EQFG | ≤ 0.2 |
| RCHK | ≤ 0.2 |
| RNCF | ≤ 0.2 |
| PVQM | ≤ 0.2 |
| YYLP | ≤ 0.2 |
| HLIG | ≤ 0.2 |
| EYNC | ≤ 0.2 |
| RMHR | ≤ 0.2 |

| Variant | one-hybrid fitness for binding parS DNA |
| --- | --- |
| TIED | ≤ 0.2 |
| DVYR | ≤ 0.2 |
| RQYD | ≤ 0.2 |
| RIRA | 0.672 |
| HDSK | ≤ 0.2 |
| ARTS | ≤ 0.2 |
| VERI | ≤ 0.2 |
| SHDS | ≤ 0.2 |
| KRGA | ≤ 0.2 |
| AKNR | ≤ 0.2 |
| HADC | ≤ 0.2 |
| IIRT | ≤ 0.2 |
| SSAD | ≤ 0.2 |
| VRAL | ≤ 0.2 |
| VVVR | ≤ 0.2 |
| MFCR | ≤ 0.2 |
| AVLV | ≤ 0.2 |
| WDCS | ≤ 0.2 |
| TLHW | ≤ 0.2 |
| GYKK | ≤ 0.2 |
| IWSY | ≤ 0.2 |
| TCGC | ≤ 0.2 |
| PNPF | ≤ 0.2 |
| MGDT | ≤ 0.2 |
| FGKN | ≤ 0.2 |

| Variant | one-hybrid fitness for binding parS DNA |
| --- | --- |
| VSNF | ≤ 0.2 |
| WHKG | ≤ 0.2 |
| WGST | ≤ 0.2 |
| VTTN | ≤ 0.2 |
| NSNC | ≤ 0.2 |
| THMA | ≤ 0.2 |
| TPLG | ≤ 0.2 |
| PIVL | ≤ 0.2 |
| YDGR | ≤ 0.2 |
| LPCE | ≤ 0.2 |
| LSHV | ≤ 0.2 |
| QGET | ≤ 0.2 |
| ITKC | ≤ 0.2 |
| GYGG | ≤ 0.2 |
| FCLR | ≤ 0.2 |
| PFHA | ≤ 0.2 |
| GEPN | ≤ 0.2 |
| VNYR | ≤ 0.2 |
| YEQD | ≤ 0.2 |
| IYSR | ≤ 0.2 |
| SPRN | ≤ 0.2 |
| QPCF | ≤ 0.2 |
| NNFI | ≤ 0.2 |
| RKDM | 0.273 |
| QAQN | ≤ 0.2 |

| Variant | one-hybrid fitness for binding parS DNA |
| --- | --- |
| RMSG | 1.02 |
| WDVM | ≤ 0.2 |
| SHNM | ≤ 0.2 |
| GHDR | ≤ 0.2 |
| VFSA | ≤ 0.2 |
| AKWF | ≤ 0.2 |
| WHYS | ≤ 0.2 |
| CVNF | ≤ 0.2 |
| IHGC | ≤ 0.2 |
| HTFR | ≤ 0.2 |
| NGTK | ≤ 0.2 |
| PQLN | ≤ 0.2 |
| ALSE | ≤ 0.2 |
| QYEA | ≤ 0.2 |
| VVID | ≤ 0.2 |
| CKDV | ≤ 0.2 |
| DFRK | ≤ 0.2 |
| TWLL | ≤ 0.2 |
| TLLF | ≤ 0.2 |
| EKSI | ≤ 0.2 |
| RFKW | 0.241 |
| AYRQ | ≤ 0.2 |
| YCSH | ≤ 0.2 |
| SWEM | ≤ 0.2 |
| PPHF | ≤ 0.2 |

| Variant | one-hybrid fitness for binding parS DNA |
| --- | --- |
| SLSF | ≤ 0.2 |
| TNYR | ≤ 0.2 |
| RVRG | 0.955 |
| SFIS | ≤ 0.2 |
| VPQE | ≤ 0.2 |
| YHGS | ≤ 0.2 |
| KCKL | ≤ 0.2 |
| NTAQ | ≤ 0.2 |
| ASTP | ≤ 0.2 |
| PDNY | ≤ 0.2 |
| RHDF | ≤ 0.2 |
| DHSA | ≤ 0.2 |
| RWKH | 0.228 |
| IRKD | ≤ 0.2 |
| PRSQ | ≤ 0.2 |
| SRQT | ≤ 0.2 |
| YDLF | ≤ 0.2 |
| IVRA | ≤ 0.2 |
| ITNR | ≤ 0.2 |
| KWFS | ≤ 0.2 |
| MTGD | ≤ 0.2 |
| AAQM | ≤ 0.2 |
| AHCR | ≤ 0.2 |
| RYCQ | ≤ 0.2 |
| QNNT | ≤ 0.2 |

| Variant | one-hybrid fitness for binding parS DNA |
| --- | --- |
| NPHA | ≤ 0.2 |
| EDVW | ≤ 0.2 |
| NTHQ | ≤ 0.2 |
| AARH | ≤ 0.2 |
| AKNC | ≤ 0.2 |
| MHSR | ≤ 0.2 |
| RSEG | 0.802 |
| AMKF | ≤ 0.2 |
| IQSH | ≤ 0.2 |
| AKED | ≤ 0.2 |
| DNRH | ≤ 0.2 |
| RGLC | 0.537 |
| QMWV | ≤ 0.2 |
| TCLP | ≤ 0.2 |
| EMQG | ≤ 0.2 |
| LAYQ | ≤ 0.2 |
| MTCS | ≤ 0.2 |
| AGRF | ≤ 0.2 |
| SPVK | ≤ 0.2 |
| RSTP | ≤ 0.2 |
| YCIR | ≤ 0.2 |
| NAES | ≤ 0.2 |
| QDRT | ≤ 0.2 |
| AMAY | ≤ 0.2 |
| AKAE | ≤ 0.2 |

| Variant | one-hybrid fitness for binding parS DNA |
| --- | --- |
| QTVM | ≤ 0.2 |
| PHFH | ≤ 0.2 |
| KPVF | ≤ 0.2 |
| GITY | ≤ 0.2 |
| VHPY | ≤ 0.2 |
| QCSG | ≤ 0.2 |
| IMLI | ≤ 0.2 |
| HWAI | ≤ 0.2 |
| AKAC | ≤ 0.2 |
| TPQG | ≤ 0.2 |
| IPDS | ≤ 0.2 |
| WTRA | ≤ 0.2 |
| APAG | ≤ 0.2 |
| YTQY | ≤ 0.2 |
| SYKC | ≤ 0.2 |
| IMAY | ≤ 0.2 |
| NFSY | ≤ 0.2 |
| TGPE | ≤ 0.2 |
| AKRC | ≤ 0.2 |
| TIGR | ≤ 0.2 |
| TLRA | ≤ 0.2 |
| FYMS | ≤ 0.2 |
| QGPW | ≤ 0.2 |
| RTFK | ≤ 0.2 |
| ISQG | ≤ 0.2 |

| Variant | one-hybrid fitness for binding parS DNA |
| --- | --- |
| RKET | 0.799 |
| HQTA | ≤ 0.2 |
| WSAC | ≤ 0.2 |
| FHTM | ≤ 0.2 |
| TSFR | ≤ 0.2 |
| STTT | ≤ 0.2 |
| PLPW | ≤ 0.2 |
| TESG | ≤ 0.2 |
| MFKY | ≤ 0.2 |
| GAVG | ≤ 0.2 |
| WHMS | ≤ 0.2 |
| PTIM | ≤ 0.2 |
| VWPG | ≤ 0.2 |
| NFYC | ≤ 0.2 |
| YSVS | ≤ 0.2 |
| PAKF | ≤ 0.2 |
| HRKT | ≤ 0.2 |
| QIGG | ≤ 0.2 |
| EHDE | ≤ 0.2 |
| KMVV | ≤ 0.2 |
